Laboratory results: PubChem BioAssay (NCI)
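Interpolation was linear, between the two tested concentrations surrounding the appropriate level; five concentrations were tested over 48 hours in 96-well plates. Abbreviation: GI50, concentration required for 50% inhibition of growth. TGI marks complete inhibition of growth.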

Tested on: NCI-H322M lung
Test: NCI anticancer screen, dose series, 48 h

`Cn1ccnc1C(=O)/C=C/c1ccc(CNC(=O)c2ccc(S(F)(F)(F)(F)F)cc2)cc1` showed a GI50 of 3.22 µM and a TGI of 6.67 µM.
